Measurements published in ChEMBL document CHEMBL1201862, “PubChem BioAssay data set” (2004).
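96-well plates; 48 h exposure; 5 concentrations. Endpoints by linear interpolation between flanking doses. Not reached: highest tested concentration assigned. GI50: concentration for 50% inhibition of growth.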 Calls of active or inactive are those of the source. Cut-off read from the data, not from the text of the source: active = GI50 up to about 1.1 µM and inactive = higher.

Legend:
Assay in all cases: growth of human tumour cells (NCI), 48 h
[1] = tested on: NCI-H226
[2] = tested on: HOP-92
[3] = tested on: HL-60
[4] = tested on: COLO 205
[5] = tested on: SW-620
[6] = tested on: HCT-116
[7] = tested on: SNB-19
[8] = tested on: MCF7
[9] = tested on: SK-MEL-5
[10] = tested on: Malme-3M
[11] = tested on: OVCAR-5
[12] = tested on: EKVX
[13] = tested on: U-251
[14] = tested on: KM-20L2
[15] = tested on: OVCAR-8
[16] = tested on: SNB-78
[17] = tested on: DMS-114
[18] = tested on: K562
[19] = tested on: XF498
[20] = tested on: NCI-H460
[21] = tested on: SF-295
[22] = tested on: HOP-62
[23] = tested on: DMS-273
[24] = tested on: KM12
[25] = tested on: NCI/ADR-RES
[26] = tested on: OVCAR-3
[27] = tested on: CCRF-CEM
[28] = tested on: HCT-15
[29] = tested on: RPMI-8226
[30] = tested on: SK-MEL-28
[31] = tested on: MDA-MB-231
[32] = tested on: SF-268
[33] = tested on: UACC-62
[34] = tested on: SF-539
[35] = tested on: SK-MEL-2
[36] = tested on: HOP-18
[37] = tested on: ACHN
[38] = tested on: HCC 2998
[39] = tested on: MDA-MB-435
[40] = tested on: A498
[41] = tested on: PC-3
[42] = tested on: SR
[43] = tested on: LOX IMVI
[44] = tested on: M19-MEL
[45] = tested on: BT-549
[46] = tested on: UO-31
[47] = tested on: DU-145
[48] = tested on: SN12C
[49] = tested on: RXF 393
[50] = tested on: HT-29
[51] = tested on: TK-10
[52] = tested on: M14
[53] = tested on: MDA-N
[54] = tested on: NCI-H522
[55] = tested on: IGROV-1
[56] = tested on: Hs-578T
[57] = tested on: UACC-257
[58] = tested on: T47D
[59] = tested on: LXFL 529
[60] = tested on: DLD-1
[61] = tested on: A549
[62] = tested on: CAKI-1
[63] = tested on: MOLT-4
[64] = tested on: SNB-75
[65] = tested on: RXF 631
[66] = tested on: OVCAR-4
[67] = tested on: NCI-H23
[68] = tested on: 786-0

Measured: GI50

COc1c(O)cc2c(c1OC)-c1ccc(OC)c(=O)cc1[C@@H](NC(C)=O)CC2 [3-DESMETHYLCOLCHICIN]
active: [1] 89.5 nM | [2] < 31.2 nM | [3] < 31.2 nM | [4] 84.1 nM | [5] 59.6 nM | [6] 87.3 nM | [7] 191 nM | [8] < 31.2 nM | [9] < 31.2 nM | [10] 34.6 nM | [12] 60.1 nM | [13] 90.4 nM | [14] 64 nM | [15] 118 nM | [16] < 31.2 nM | [17] 32.5 nM | [18] < 31.2 nM | [19] 41.5 nM | [20] 92 nM | [21] 82.4 nM | [22] 220 nM | [23] 33.3 nM | [24] 69.8 nM | [26] 32.5 nM | [27] 32.5 nM | [29] 32.5 nM | [30] 32.5 nM
inactive: [11] 312000 nM | [25] 6970 nM
356 nM: [28]

COc1cc2c(c(OC)c1OC)-c1ccc(SC)c(=O)cc1[C@@H](NC(C)=O)CC2 [THIOCOLCHICINE]
active: [31] < 10 nM | [1] 63.1 nM | [2] < 10 nM | [32] < 10 nM | [33] < 10 nM | [3] < 10 nM | [34] < 10 nM | [35] 46.5 nM | [37] 11.4 nM | [38] < 10 nM | [39] 15.8 nM | [40] < 10 nM | [4] < 10 nM | [41] < 10 nM | [5] < 10 nM | [42] < 10 nM | [6] < 10 nM | [7] 34.6 nM | [43] < 10 nM | [44] < 10 nM | [8] < 10 nM | [9] < 10 nM | [45] 1000 nM | [10] < 10 nM | [47] < 10 nM | [13] < 10 nM | [14] < 10 nM | [15] < 10 nM | [16] < 10 nM | [48] 15.1 nM | [49] 215 nM | [17] < 10 nM | [50] < 10 nM | [52] 63.1 nM | [53] < 10 nM | [54] < 10 nM | [55] < 10 nM | [18] < 10 nM | [56] 155 nM | [19] 15.5 nM | [59] < 10 nM | [60] < 10 nM | [20] < 10 nM | [21] < 10 nM | [61] < 10 nM | [22] < 10 nM | [62] < 10 nM | [23] < 10 nM | [63] < 10 nM | [64] < 10 nM | [24] < 10 nM | [25] < 10 nM | [26] < 10 nM | [27] < 10 nM | [29] < 10 nM | [65] < 10 nM | [67] < 10 nM | [68] < 10 nM
inactive: [36] 23200 nM | [46] 1260 nM | [12] 14400 nM | [51] > 10000 nM | [57] 1870 nM | [58] > 100000 nM | [30] 50700 nM | [66] 20700 nM
12.5 nM: [28]
